# From PubChem BioAssay AID588591 (National Center for Advancing Translational Sciences (NCATS), 2011)
# Hit rate of the full screen: of about 390,000 compounds, about 4,700 (1.2%) were called active. This list was built around the results that the source calls inconclusive (neither active nor inactive); the mix of calls is not that of the screen. Calls come from the whole dose curve; as a rule, active = well fitted inhibition curve with a large enough effect; inconclusive = small, poorly fitted or top-dose-only effect, or another doubt; inactive = no such curve, though single readings can be large or run the other way. Where the call is inconclusive, the potency comes from a doubtful curve fit.
# Biological target: DNA polymerase eta (Homo sapiens) (UniProt Q9Y253)
# UniProt Q9Y253, sequence (Q9Y253 whole entry, looked up): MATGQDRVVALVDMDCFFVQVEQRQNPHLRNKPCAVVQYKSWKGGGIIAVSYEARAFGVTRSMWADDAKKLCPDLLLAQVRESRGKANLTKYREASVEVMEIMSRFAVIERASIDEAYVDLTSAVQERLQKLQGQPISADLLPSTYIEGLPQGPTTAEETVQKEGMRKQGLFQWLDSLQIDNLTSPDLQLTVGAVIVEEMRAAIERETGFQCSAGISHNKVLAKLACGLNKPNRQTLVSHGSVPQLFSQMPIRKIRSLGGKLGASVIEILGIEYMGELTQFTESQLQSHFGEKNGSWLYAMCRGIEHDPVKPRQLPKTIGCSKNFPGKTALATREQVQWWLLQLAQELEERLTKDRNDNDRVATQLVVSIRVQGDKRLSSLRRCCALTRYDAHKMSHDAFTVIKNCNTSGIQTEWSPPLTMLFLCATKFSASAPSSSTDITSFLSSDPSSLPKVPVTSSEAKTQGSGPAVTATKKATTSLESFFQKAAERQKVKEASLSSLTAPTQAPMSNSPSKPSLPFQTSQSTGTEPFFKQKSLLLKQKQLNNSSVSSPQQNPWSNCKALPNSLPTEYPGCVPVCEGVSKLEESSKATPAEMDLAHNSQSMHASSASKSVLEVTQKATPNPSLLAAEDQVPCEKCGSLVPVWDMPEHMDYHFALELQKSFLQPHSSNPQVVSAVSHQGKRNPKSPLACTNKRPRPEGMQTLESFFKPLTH
# Test: qHTS for Inhibitors of Polymerase Eta
# Details: recombinant Pol eta, fluorescent DNA replication assay; series mostly up to 114 µM
# Method in brief: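 Fluorescent replication assay: 50 nM final substrate added after a 15 min room-temperature compound preincubation with 10 nM enzyme. Signal taken at 0 min and again at 10 min.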
# Potency is the fitted concentration of half-maximal effect; tags give direction and shape of the fitted curve.
row,SMILES,Potency
1,O=C(O)c1cc(-n2cccc2)ccc1N1CCOCC1,active: 50.1 µM
2,COc1ccc(-c2csc(NC(=O)c3ccc(C(C)(C)C)cc3)c2C(=O)O)cc1,"inconclusive: 100 µM [inhibitor, single point]"
3,COc1ccc(N2Cc3cccc(C(=O)Nc4cc(C)cc(C)c4)c3C2=O)cc1,active: 79.4 µM
4,COc1ccc(CCNC(=O)CNS(=O)(=O)c2ccc(N(C)C)c([N+](=O)[O-])c2)cc1OC,"inconclusive: 35.5 µM [inhibitor, partial curve, poor fit]"
5,Fc1cccc(NC(=S)Nc2ccc(Br)cc2)c1,"inconclusive: 20 µM [inhibitor, partial curve, poor fit]"
6,CC(=O)N1CCc2cc(S(=O)(=O)NCCC(=O)NC3CCCc4ccccc43)ccc21 (configuration not stated),inactive
7,N#CC1=C(c2ccccc2)/C(=C/c2ccccc2)OC1=O,"inconclusive: 20 µM [inhibitor, full curve, poor fit]"
8,O=S(=O)(c1ccc(Cl)cc1)c1snnc1-c1ccccc1,"inconclusive: 31.6 µM [inhibitor, partial curve, poor fit]"
9,O=C1C(Cl)=C(Nc2ccc3cn[nH]c3c2)C(=O)c2ccccc21,active: 50.1 µM
10,COc1ccccc1NCc1cccn1-c1nnc(N2CCCCCC2)s1,"inconclusive: 79.4 µM [inhibitor, partial curve, poor fit]"
11,O=C(/C=C\Nc1ccc2c(c1)OCO2)c1cccs1,"inconclusive: 100 µM [inhibitor, partial curve, poor fit]"
12,O=C(CCCN1C(=O)/C(=C/c2cccs2)SC1=S)NNC(=O)c1ccncc1,"inconclusive: 39.8 µM [inhibitor, partial curve]"
13,COc1ccc(-c2cc(-c3nnc(COC(=O)C4CC4)o3)c3ccccc3n2)cc1OC,"inconclusive: 79.4 µM [inhibitor, partial curve, poor fit]"
14,O=C(O)CCC(=O)N1N=C(c2ccco2)CC1c1ccco1 (configuration not stated),"inconclusive: 14.1 µM [inhibitor, full curve, poor fit]"
15,Cc1cccc(Nc2ccccc2C(=O)O)c1C,inactive
16,O=C1N/C(=C/c2ccc(Br)cc2)C(O)=C1C=NCc1ccccc1,"inconclusive: 10 µM [inhibitor, partial curve]"
17,NS(=O)(=O)c1ccc(CNC(=O)c2ccc(NS(=O)(=O)c3cccs3)cc2)cc1,"inconclusive: 0.631 µM [inhibitor, full curve, poor fit]"
18,CCOC(=O)N1CCc2c(sc3ncn(Cc4ccc(F)cc4)c(=O)c23)C1,"inconclusive: 3.16 µM [inhibitor, partial curve, poor fit]"
19,Cc1ccc(S(=O)(=O)N2CC(O)CC2C(=O)OCC(=O)c2ccccc2Cl)cc1C (configuration not stated),"inconclusive: 89.1 µM [inhibitor, partial curve, poor fit]"
20,COc1ccc(-c2cc3ccccc3oc2=O)cc1NC(=O)c1ccc(Br)o1,active: 11.2 µM
21,Cc1cc(C)n2ncc(C(=O)Nc3cccc(O)c3)c2n1,"inconclusive: 28.2 µM [inhibitor, full curve, poor fit]"
22,CCc1ccc(C(=O)COC(=O)c2n[nH]c3ccccc23)cc1,"inconclusive: 0.316 µM [inhibitor, full curve, poor fit]"
23,O=C1CCCCC1C(Nc1ccc(Br)cc1)c1ccccc1 (configuration not stated),"inconclusive: 0.316 µM [inhibitor, full curve, poor fit]"

row,SMILES,Potency
1,CCOC(=O)c1cc2c(=O)n3cccc(C)c3nc2n(Cc2ccco2)c1=NC(=O)c1cccnc1,active: 20 µM
2,CCN(CC)c1ccc2c(c1)oc(=O)c1c(Cl)cc(=O)oc12,active: 14.1 µM
3,O=C(O)Cc1ccc(NC2(c3ccccc3)C(=O)c3ccccc3C2=O)cc1,inactive
4,Cc1cc(-c2ccccc2)nc(Oc2ccc(C(C)(C)C)cc2)c1S(C)(=O)=O,"inconclusive: 20 µM [inhibitor, partial curve, poor fit]"
5,CC(SCc1cc(=O)n2c([nH]c3ccccc32)c1C#N)C(=O)O (configuration not stated),"inconclusive: 35.5 µM [inhibitor, partial curve, poor fit]"
6,CN(C)c1ccc(-c2nc(-c3ccco3)no2)cc1[N+](=O)[O-],inactive
7,Cc1ccc(C2(c3ccc(C)cc3)CC2C(=O)Nc2ccc([N+](=O)[O-])cc2O)cc1 (configuration not stated),"inconclusive: 39.8 µM [inhibitor, partial curve, poor fit]"
8,C[C@H]1CN([C@@H](C)CO)C(=O)CCCn2nncc2CO[C@H]1CN(C)C(=O)c1ccncc1,inactive
9,O=C(OCc1ccccc1)c1cccc(-c2nnn(Cc3ccccc3)n2)c1,"inconclusive: 79.4 µM [inhibitor, partial curve, poor fit]"
10,Cc1ccnc(Nc2nc(-c3c(C)nc4sccn34)cs2)c1,"inconclusive: 22.4 µM [inhibitor, partial curve, poor fit]"
11,Nc1[nH]nc2ncc3cc4ccccc4nc3c12,"inconclusive: 44.7 µM [inhibitor, partial curve]"
12,Cc1cccc(C)c1NC(=O)CCCCCC1NC(=O)NC1C (configuration not stated),inactive
13,CCCN(CCC)S(=O)(=O)c1cccc(C(=O)N=c2sccn2C)c1,"inconclusive: 50.1 µM [inhibitor, partial curve, poor fit]"
14,O=C(CSc1nc2ccsc2c(=O)n1CC1CCC(C(=O)O)CC1)c1ccc(Cl)cc1 (configuration not stated),active: 39.8 µM
15,Cc1cccc2sc(NNC(=O)c3cc(=O)c4ccccc4o3)nc12,inactive
16,CCOc1ccc2nc(NC(=O)CSc3nc(-c4ccccc4)c(C#N)c(=O)[nH]3)sc2c1,active: 50.1 µM
17,COc1cc(/C=C2\SC(=Nc3ccccc3)NC2=O)cc(Cl)c1O,"inconclusive: 31.6 µM [inhibitor, full curve]"
18,O=C(CSc1nnc(-c2ccccn2)n1Cc1ccco1)c1ccc(Cl)cc1,"inconclusive: 15.8 µM [inhibitor, single point]"
19,Cc1ccc2c(c1)c(=O)c1ccccc1n2CCCC(=O)Nc1cc(Cl)ccc1C,active: 79.4 µM
20,Cc1ccc(C)c(N2CCN(C(=O)c3cc(C)nc4c3c(C)nn4-c3cccc(F)c3)CC2)c1,inactive
21,COc1ccc(NS(=O)(=O)c2cc(NC(=O)c3ccc(F)cc3)ccc2OC)cc1,"inconclusive: 15.8 µM [inhibitor, full curve, poor fit]"
22,COc1ccc(-c2nnc(-c3cc4c(ccc5ccccc54)oc3=O)o2)cc1,"inconclusive: 89.1 µM [inhibitor, partial curve, poor fit]"
23,Cc1cc(=O)n2[nH]c(-c3ccsc3-n3c(C)ccc3C)cc2n1,active: 7.94 µM

row,SMILES,Potency
1,Cc1ccc(S(=O)(=O)c2nc(Nc3ccccc3)sc2Cl)cc1,"inconclusive: 79.4 µM [inhibitor, partial curve, poor fit]"
2,O=c1c2c3nc4ccccc4nc3n(/N=C/c3ccco3)c2ncn1CCC1=CCCCC1,"inconclusive: 79.4 µM [inhibitor, partial curve]"
3,O=C(Nc1cccc2nsnc12)c1ccc(-c2cccc(Cl)c2)o1,"inconclusive: 14.1 µM [inhibitor, partial curve, poor fit]"
4,Cc1cccnc1NC(=S)NC(=O)/C=C/c1ccco1,"inconclusive: 28.2 µM [inhibitor, single point]"
5,O=C(CC1CCCCC1)NCc1ccco1,inactive
6,CCOc1ccc(NC(=O)c2cccc3c2C(=O)N(CC2CCCO2)C3)cc1 (configuration not stated),"inconclusive: 28.2 µM [inhibitor, partial curve, poor fit]"
7,COc1cc2[nH]c(=S)nc(NCC3CCCO3)c2cc1OC (configuration not stated),inactive
8,N#Cc1ccc(OCC(=O)N2CCCC2=O)cc1,inactive
9,Nc1ncnc2oc(-c3ccco3)c(-c3ccco3)c12,active: 39.8 µM
10,CCC/C=C/c1ccc(CN2C(CC(C)C)C(=O)N(Cc3cn(CCC4OCCCO4)nn3)CCS2(=O)=O)cc1 (configuration not stated),"inconclusive: 50.1 µM [inhibitor, partial curve, poor fit]"
11,COc1ccc(OCCCCc2c(C)n[nH]c2C)cc1,inactive
12,COc1ccc(C(=O)COC(=O)CNC(=O)c2ccc(Cl)cc2Cl)c(OC)c1,"inconclusive: 22.4 µM [inhibitor, partial curve, poor fit]"
13,N=NC(=O)c1ccccc1Nc1c(O)[nH]c2ccccc12,"inconclusive: 31.6 µM [inhibitor, single point]"
14,COc1ccc(OCCCC(=O)ON=C(N)c2ccccc2C)cc1,inactive
15,Cc1ccc(-c2nc(Nc3ccc(N4CCOCC4)cc3)c3ccccc3n2)cc1,"inconclusive: 79.4 µM [inhibitor, partial curve, poor fit]"
16,Cc1ccc(/C=C2\SC(=S)N(C(Cc3ccccc3)C(=O)O)C2=O)cc1 (configuration not stated),active: 79.4 µM
17,O=C(CCc1nnc2ccc(NCc3ccco3)nn12)N1CCCCC1,"inconclusive: 28.2 µM [inhibitor, partial curve, poor fit]"
18,O=C(OCc1cc(=O)n2c(n1)sc1ccccc12)c1ccc2c(=O)n3c(nc2c1)CCC3,"inconclusive: 11.2 µM [inhibitor, partial curve]"
19,O=C(Nc1ccc(N2CCOCC2)cc1)Nc1ccc2nc(-c3ccco3)c(-c3ccco3)nc2c1,inactive
20,CC(C)=CCc1c2c(c3occ(-c4ccc(O)cc4)c(=O)c3c1O)C=CC(C)(C)O2,"inconclusive: 56.2 µM [inhibitor, partial curve, poor fit]"
21,O=C(N/N=C/C(Cl)=C/c1ccc([N+](=O)[O-])cc1)C(=O)Nc1ccc(C(=O)O)cc1,"inconclusive: 79.4 µM [inhibitor, partial curve]"
